According to PubChem BioAssay AID504832 (National Center for Advancing Translational Sciences (NCATS), 2011):
Hit rate of the full screen: of about 310,000 compounds, about 18,000 (5.8%) were called active. The shares of active, inactive and inconclusive entries below differ from those in the screen. The call rests on the fitted dose curve; in most records, active means well fitted inhibition curve with a large enough effect; inconclusive means small, poorly fitted or top-dose-only effect, or another doubt; inactive means no such curve, though single readings can be large or run the other way. Potencies of inconclusive entries are left out as doubtful fits.

Assay: Primary qHTS for delayed death inhibitors of the malarial parasite plastid, 48 hour incubation
Conditions: P. falciparum luciferase growth in erythrocytes; series mostly up to 28.7 µM
How it was run: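 In quantitative HTS format, infected erythrocytes bearing luciferase-reporter parasites were treated for a single generation at 37 C. Luminescence after adding detection reagent served as the growth measure.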
Potency means the concentration at half of the fitted maximal effect; tags describe the fitted curve by direction and shape.

SMILES | Potency
Cc1ccc(C)c(/C(O)=C2\C(=O)C(=O)N(CCCn3ccnc3)C2c2ccncc2)c1 (configuration not stated) | inconclusive [inhibitor, single point]
O=C(CN1C(=O)NC(Cc2ccccc2)C1=O)Nc1ccc(F)c(Cl)c1 (configuration not stated) | inconclusive [inhibitor, partial curve, poor fit]
O=C(COc1ccc(S(=O)(=O)N2CCCCC2)cc1Cl)N1CCOCC1 | inactive
CCOC(=O)N1CCN(S(=O)(=O)c2ccc(C(=O)Nc3ccc(F)cc3F)cc2)CC1 | inconclusive [inhibitor, single point]
COc1ccc(-n2nnnc2SCC(=O)Nc2cc(OC)c([N+](=O)[O-])cc2C)cc1 | inconclusive [inhibitor, full curve, poor fit]
CC(C)c1ccc(NC2CCCN(C(=O)c3ccsc3)C2)cc1 (configuration not stated) | inconclusive [inhibitor, partial curve]
Cc1ccc(/C=N/Nc2nc(C(C)(C)C)cs2)o1 | inconclusive [inhibitor, single point]
CCOC(=O)N1CCN(Cc2nc3ccc([N+](=O)[O-])cc3c(=O)n2-c2ccccc2F)CC1 | inconclusive [inhibitor, single point]
CC1(C)CC2CC(C)(CN2/C=N/c2sc3c(c2C#N)CC(C)(C)NC3(C)C)C1 (configuration not stated) | inconclusive [inhibitor, partial curve]
CCn1nc(C)c(CNC(=O)c2ccc(OC3CCN(Cc4ccccn4)CC3)cc2)c1C | inactive
C[n+]1c2n(c3ccccc31)N=C(c1ccc(-c3ccccc3)cc1)CS2 | inconclusive [inhibitor, full curve]
Cc1ccc(C(C)C)c(OCC(=O)NNC(=O)C2CSC3(C)CCC(=O)N23)c1 (configuration not stated) | inconclusive [inhibitor, partial curve, poor fit]
NNC(=O)c1cc2ccccc2[nH]1 | inconclusive [inhibitor, partial curve]
C/C(=N\NC(=O)c1ccc(C)cc1C)c1ccc2c(c1)OCO2 | active: 10.4 µM
COc1cccc(C(=O)NCC2CCCN2S(=O)(=O)c2ccccc2)c1 (configuration not stated) | inconclusive [inhibitor, single point]
CCOC(=O)C1=C(O)/C(=C/c2ccc(-c3ccccc3C(=O)O)o2)SC1=Nc1ccc(C)cc1 | inconclusive [inhibitor, full curve, poor fit]
O=C(Nc1ccc2c(c1)OCCO2)N1CCN(Cc2ccccc2)CC1 | inactive
COc1ccccc1NS(=O)(=O)c1cn(C)cn1 | inactive
CSc1nc(Oc2ccc(Cl)cc2)c2sccc2n1 | inconclusive [inhibitor, single point]
CCC(C)(C)n1nnnc1C(c1cc2ccc(C)cc2[nH]c1=O)N(Cc1cccnc1)Cc1ccco1 (configuration not stated) | active: 11.7 µM
Cc1ccc(NC(=O)Cn2c(=O)n(CCC(=O)NC3CCN(Cc4ccccc4)CC3)c(=O)c3ccccc32)cc1 | inconclusive [inhibitor, single point]
O=C(O)CCCCCNc1nc(=S)[nH]c2ccccc12 | inconclusive [inhibitor, partial curve]
Cc1cc2ncn(CC3CC3(Cl)Cl)c2cc1C (configuration not stated) | inactive
CCn1c(SCC(=O)N2CCCc3ccccc32)nc2cccnc21 | inconclusive [inhibitor, partial curve]

SMILES | Potency
Cc1ccc(NC(=O)CNC(=O)N2CC(=O)Nc3ccccc32)cc1F | inactive
COc1ccc2c(COC(=O)c3cccc(S(=O)(=O)NCC(C)C)c3)cc(=O)oc2c1 | active: 9.28 µM
COc1ccc(-c2cc(C(=O)N/N=C(\C)c3ccco3)c3ccccc3n2)c(OC)c1 | active: 9.28 µM
c1ccc(-c2csc3ncnc(NCc4ccccn4)c23)cc1 | inconclusive [inhibitor, single point]
COc1ccc(-c2cccc(NC(=O)c3ccco3)c2)nn1 | inconclusive [inhibitor, single point]
COc1ccc(-c2csc(N3CCC(C(N)=O)(N4CCCCC4)CC3)n2)cc1 | inconclusive [inhibitor, single point]
Cc1ccc(C2(C)NC(=O)N(CC(=O)Nc3ccccc3N3CCCC3)C2=O)cc1 (configuration not stated) | inconclusive [inhibitor, partial curve]
O=C(CN1CCN(S(=O)(=O)/C=C/c2ccccc2)CC1)Nc1ccc(N2CCOCC2)cc1 | inactive
CC(OC(=O)CCN=C1NS(=O)(=O)c2ccccc21)C(=O)Nc1ccc(S(N)(=O)=O)cc1 (configuration not stated) | inactive
CCc1nnc(NC(=O)C(=O)NCCOC(=O)c2ccccc2)s1 | inactive
COc1ccc(NC(=O)c2c(-c3ccccc3Cl)noc2C)c(OC)c1 | active: 2.62 µM
CC1CN(C(=O)c2ccccc2Nc2ccc(SC(F)F)cc2)CC(C)O1 (configuration not stated) | inconclusive [inhibitor, single point]
COc1ccc(NS(=O)(=O)c2cc(N)ccc2N2CCCCC2)cc1 | inconclusive [inhibitor, single point]
O=C(COc1ccc([N+](=O)[O-])cc1)NNC(=O)Nc1cccc(F)c1 | inactive
COc1ccc(N2CCN(c3nc4ccc(C)cn4c(=O)c3C=O)CC2)cc1 | inconclusive [inhibitor, single point]
CC(=O)N1c2ccc(S(=O)(=O)N3CCC(C(=O)NCCc4ccc(Cl)cc4)CC3)cc2CC1C (configuration not stated) | inconclusive [inhibitor, single point]
COc1ccc(/C=C/C(=O)c2cc(F)ccc2OC(=O)c2ccccc2C)cc1OC | inconclusive [inhibitor, single point]
O=C(c1ccco1)N1CCCN(Cc2cn[nH]c2-c2ccc(-c3ccccc3)cc2)CC1 | inconclusive [inhibitor, single point]
COc1ccc(C(=O)NCCCOC(C)C)cc1OC1CCN(C(C)=O)CC1 | inactive
O=C(c1nc2ccccn2c1CN1CCN(c2ccccc2O)CC1)N1CCCC1 | inconclusive [inhibitor, partial curve, poor fit]
OCCC1CN(Cc2nc3ccc(F)cc3[nH]2)CCN1C1CCCC1 (configuration not stated) | inactive
O=C(C1CCCN(S(=O)(=O)c2cccc3nonc23)C1)N1CCN(c2ccccc2Cl)CC1 (configuration not stated) | active: 11.7 µM
CCC(=O)N1CCN(c2ccccc2NC(=O)COc2cccc(C)c2)CC1 | inconclusive [inhibitor, single point]
CSCCC(NC(=O)/C(=C/c1ccc(F)cc1)NC(C)=O)C(=O)O (configuration not stated) | inactive

SMILES | Potency
O=S(=O)(c1ccc(Br)s1)N1CCN(c2ccc(F)cc2)CC1 | inconclusive [inhibitor, partial curve, poor fit]
COc1cc(NC(=S)Nc2cccc(C)n2)cc(OC)c1OC | inactive
COc1cc(OC)c(OC)cc1CCC(C)NCCC(c1ccccc1)c1ccccc1 (configuration not stated) | active: 4.15 µM
Cc1ccc(-c2[nH]ncc2C(=O)c2ccccc2C)c(O)c1 | inconclusive [inhibitor, single point]
CC(O)CNCCCCOc1ccc(OCc2ccccc2)cc1 (configuration not stated) | inconclusive [inhibitor, single point]
O=C(OCn1ncc(Cl)c(Cl)c1=O)c1ccc(F)cc1 | inconclusive [inhibitor, partial curve, poor fit]
Cc1cc(NC(=O)COC(=O)C2CC(=O)N(c3ccc(Cl)cc3)C2)no1 (configuration not stated) | inactive
COC(=O)c1ccc2c(=O)n(Cc3ccco3)c(SCC(=O)Nc3cc(C)on3)nc2c1 | active: 4.65 µM
CC(C)(C)n1nnnc1C(c1cccs1)N(Cc1cccnc1)CC1CCCO1 (configuration not stated) | inconclusive [inhibitor, full curve, poor fit]
Cc1ccc(S(=O)(=O)CCC(=O)Nc2ccccc2Br)cc1 | inactive
N=c1n(CC(=O)c2cccs2)c2ccccc2n1Cc1ccccc1 | inconclusive [inhibitor, single point]
O=C(Nc1ccc2c(c1)CCC2)c1ccccc1Br | inactive
Nc1n[nH]c(N)c1N=Nc1ccc2c(c1)OCO2 | inactive
COc1ccc(S(=O)(=O)N2CCOCC2)cc1NC(=O)CNC(=O)c1cccs1 | inconclusive [inhibitor, single point]
O=C(/C=C/c1ccccc1O)c1ccco1 | inactive
Cc1[nH]c2ccc(Cl)cc2c(=O)c1CN1CCCC1 | inactive
CN(CCCCCCN(C)Cc1ccccc1O)Cc1ccccc1O | inconclusive [inhibitor, single point]
Cn1ccc(NC(=O)c2ccc([N+](=O)[O-])cc2)n1 | inactive
CCOC(=O)C1(Cc2ccccc2C)CCCN(C(=O)CCc2cccnc2)C1 (configuration not stated) | inconclusive [inhibitor, single point]
O=S(=O)(NCCN1CCOCC1)c1cc(Cl)c(Cl)cc1Cl | inactive
C=CCN1CC[C@@]2(C)c3cc(O)ccc3CC1[C@@H]2C | inconclusive [inhibitor, single point]
Cc1ccc(S(=O)(=O)N2c3cc(C)ccc3OCC2C(C)(C)C)cc1 (configuration not stated) | active: 13.1 µM
CCn1c(CNc2ccc(F)cc2)nnc1SCC(=O)N1CCCc2ccccc21 | inconclusive [inhibitor, single point]
O=C1CCC(c2ccccc2)(C2CCN(Cc3ccccc3)CC2)C(=O)N1 (configuration not stated) | inconclusive [inhibitor, single point]
